In PubChem BioAssay AID1345083 (National Center for Advancing Translational Sciences (NCATS), 2018):
The campaign covered roughly 94,000 compounds. About 6,200 (6.6%) were called active. This list was built around the results that the source calls inconclusive (neither active nor inactive); the mix of calls is not that of the screen. Calls follow the shape of the dose curve; as a rule, active = well fitted inhibition curve with a large enough effect; inconclusive = small, poorly fitted or top-dose-only effect; inactive = flat fitted curve, though single readings scatter. Where the call is inconclusive, the potency comes from a doubtful curve fit.

Assay: Cytotoxic Profiling in HEK 293 Cell Line of Diverse Libraries Using Quantitative High-Throughput Screening; also: nearly all actives have a fitted effect of over 60% in size
Settings: HEK 293 viability, ATP luminescence (CellTiter-Glo), 48-72 h; series mostly up to 115 µM
How it was run: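 Viability of HEK 293 cells, plated at 250 cells/well, was judged by cellular ATP after compound treatment for 48 or 72 hr. Luminescence was imaged 10 min after CellTiter-Glo addition at room temperature.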
Potency is read from the fitted curve at half-maximal effect; tags tell the direction and shape of the fitted curve.

| SMILES | Potency |
| --- | --- |
| CN(C)c1cc(=O)c2ccnc(N3CCN(c4ccccn4)CC3)c2o1 | inactive |
| CC(=O)c1ccc(NC(=O)Cn2c(N3CCc4ccccc4C3)nc(C)cc2=O)cc1 | active: 35.5 µM |
| Cc1cn2nc(C(=O)NCc3ccc(F)cc3F)cc2c(=O)[nH]1 | inconclusive: 89.1 µM [inhibitor, single point] |
| Cc1cc2c(Nc3cccnc3)nc(-c3c(C)noc3C)cc2[nH]1 | inconclusive: 17.8 µM [inhibitor, full curve, poor fit] |
| O=C(c1ccc(C(F)(F)F)cc1)N1CCC([C@@H]2CNC[C@H]2CO)CC1 | inconclusive: 31.6 µM [inhibitor, single point] |
| CC(=O)Nc1ccc(NC(=O)c2cc3sc(C)c(CN4CCCCC4)c3[nH]2)cc1 | inconclusive: 89.1 µM [inhibitor, partial curve, poor fit] |
| Cc1nc(CN2C[C@H](C(=O)NCCOc3ccccc3)C[C@@H]2c2ccc(F)cc2)cs1 | active: 89.1 µM |
| CCN1CCN(C(=O)c2cc(-c3ccccc3F)nc3c2cnn3C)CC1 | inactive |
| CN(C)c1ccc(C(=O)NC2CCN(c3cc(-c4ccc(Cl)cc4)[nH]n3)CC2)cc1 | inconclusive: 3.55 µM [inhibitor, full curve, poor fit] |
| O=C(NC1CCCCC1)c1ccc2nc(-c3ccccn3)oc2c1 | inconclusive: 100 µM [inhibitor, partial curve, poor fit] |
| O=C(CN1CCCc2nc(C3CC3)ncc2C1=O)N1CCc2ccccc2C1 | inconclusive: 89.1 µM [inhibitor, single point] |
| Cc1cccc(-c2cccc(CN3CCC(NC(=O)Cc4ccccn4)CC3)c2)c1 | inconclusive: 56.2 µM [inhibitor, partial curve, poor fit] |
| CCc1nn(-c2ccc(OC)cc2)c(Oc2cccc(F)c2)c1CCC(=O)N(CC)CC | inconclusive: 50.1 µM [inhibitor, partial curve, poor fit] |
| Cc1cnn(CC(=O)N2C[C@@H](COCC3CC3)[C@H](c3ccccn3)C2)c1 | inactive |
| O=C(CC1CCCC1)N1C[C@@H](CO)[C@@H]2Oc3ccc(Cl)cc3[C@@H]21 | inconclusive: 70.8 µM [inhibitor, partial curve, poor fit] |
| CNC(=O)c1cc(C2CC2)nc2c1c(C1CCN(C(=O)c3ccc(C(F)(F)F)cc3)CC1)nn2C | inconclusive: 89.1 µM [inhibitor, single point] |
| COc1ccccc1CNC(=O)c1ccc2c(c1)N(C)C1CCCCN1C2=O (centres undefined) | inconclusive: 89.1 µM [inhibitor, partial curve, poor fit] |
| Cc1cccc(-c2cccc(CN3CCC(NC(=O)c4ccccn4)CC3)c2)c1 | inconclusive: 50.1 µM [inhibitor, partial curve, poor fit] |
| COc1cccc(CN(C)Cc2cccc(C(F)(F)F)c2)c1 | inconclusive: 112 µM [inhibitor, partial curve, poor fit] |
| CN(C)C(=O)N1CCC(C(=O)N2CCCC2c2nc3ccncc3[nH]2)CC1 (centres undefined) | inactive |

| SMILES | Potency |
| --- | --- |
| COc1ccc(Cl)cc1CN(C)C(=O)c1ccc(C2CCCNC2)cc1 (centres undefined) | inconclusive: 50.1 µM [inhibitor, partial curve, poor fit] |
| O=C(NC1CCCC1)NC1CCCN(Cc2ccc(-c3cncnc3)cc2)C1 (centres undefined) | inconclusive: 44.7 µM [inhibitor, partial curve] |
| O=C(c1ccc(C(F)(F)F)cc1)N1CCN2C(=O)N(C3CCCCC3)C[C@H]2C1 | inconclusive: 89.1 µM [inhibitor, partial curve, poor fit] |
| Cc1ccsc1C(=O)N1CCC2(CC1)N=C(c1cccc(Br)c1)NO2 | inconclusive: 31.6 µM [inhibitor, partial curve, poor fit] |
| Fc1ccc2nc([C@H]3CCN(Cc4ccccc4F)C3)[nH]c2c1 | inconclusive: 56.2 µM [inhibitor, partial curve, poor fit] |
| COCC1CN(C2CCC2)CC12CCN(C(=O)C1CCN(C(C)=O)CC1)CC2 (centres undefined) | inactive |
| Cc1cccc(CC(=O)N2CCCN(c3cc(-c4ccc(Cl)cc4)[nH]n3)CC2)c1 | inconclusive: 50.1 µM [inhibitor, partial curve, poor fit] |
| O=C1NC(=NC2CCCC2)C2(CCN(Cc3ccc(F)cc3)C2)N1c1cc(F)cc(F)c1 (centres undefined) | inconclusive: 79.4 µM [inhibitor, partial curve, poor fit] |
| CS(=O)(=O)N1CCC(C2CCN(C(=O)CN3CCOCC3)C2)CC1 (centres undefined) | inactive |
| Cc1ccc2oc([C@H]3CCN(Cc4cccc(Cl)c4)C3)nc2c1 | inconclusive: 112 µM [inhibitor, partial curve, poor fit] |
| Cc1noc(-c2cn(C3CCN(C(=O)c4cccc(F)c4)CC3)nn2)n1 | inactive |
| Cn1nc(C2CCCC2)cc1NC(=O)c1ccc(Cl)nc1 | inconclusive: 126 µM [inhibitor, single point] |
| COc1ccc(C(=O)NC2CCN(c3cc(-c4ccccc4)[nH]n3)C2)c(C)c1 (centres undefined) | inconclusive: 56.2 µM [inhibitor, partial curve, poor fit] |
| COC(=O)CNC(=O)c1cc(-c2cccc(C(F)(F)F)c2)c2cccn2n1 | inconclusive: 10 µM [inhibitor, full curve, poor fit] |
| O=C(Nc1ccccc1F)N1CC2CCC(C1)N2Cc1ccc(Cl)cc1 | inconclusive: 79.4 µM [inhibitor, partial curve, poor fit] |
| O=C(NC1CCCc2c1[nH]c1c(Cl)cccc21)c1ccccn1 (centres undefined) | inconclusive: 31.6 µM [inhibitor, partial curve, poor fit] |
| COc1cccc(C(=O)N2CCCC3(C2)NC(=O)N(Cc2ccc(C)cc2)C3=O)c1 (centres undefined) | inactive |
| O=C(NCCNC(=O)c1ccc(C(F)(F)F)cc1)c1ccc(-c2cncnc2)cc1 | inactive |
| CCn1cc(CN2CCCC(c3nc4c(C)cccc4[nH]3)C2)cc1C#N (centres undefined) | inconclusive: 44.7 µM [inhibitor, partial curve, poor fit] |
